Among all 3,200 compounds or so, about 300 (9.4%) showed activity. The entries are a selection whose mix differs from that of the whole data set.

The test has as its system A673/TR/shEF. Briefly: cell viability (LOESS-normalised, relative to median of negative controls) (log2 ratio); higher = more viable cells (less compound effect), active = hit call of the paper (over 3 MAD below the median). The settings on record: treatment time: 72 h. The method, boiled down:
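Doxycycline, present or absent from 24 h before compounds, was used to induce EWS-FLI1 shRNA knockdown in A673/TR/shEF Ewing sarcoma cells at 1,500 per well in 384-well plates. Cells then received library compounds at two or more concentrations, or DMSO controls, for three days. Viability was measured by CellTiter-Glo luminescence on an Envision reader, and per-plate LOESS correction, division by the negative-control median and log2 transformation followed.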

Where [1] appears, read: 2.5 µM, library screen: screen2, EWS-FLI1 expression: high (no doxycycline).
Where [2] appears, read: 25 µM, library screen: screen2, EWS-FLI1 expression: high (no doxycycline).
Setting [3] is: 25 µM, library screen: screen2, EWS-FLI1 expression: low (doxycycline-induced shRNA knockdown).
Setting [4] is: 0.25 µM, library screen: screen1, EWS-FLI1 expression: high (no doxycycline).
The mark [5] stands for this setting: 0.25 µM, library screen: screen1, EWS-FLI1 expression: low (doxycycline-induced shRNA knockdown).
The mark [6] stands for this setting: 0.25 µM, library screen: screen2, EWS-FLI1 expression: high (no doxycycline).
Setting [7] is: 0.25 µM, library screen: screen2, EWS-FLI1 expression: low (doxycycline-induced shRNA knockdown).
The mark [8] stands for this setting: 2.5 µM, library screen: screen1, EWS-FLI1 expression: high (no doxycycline).
Setting [9] is: 2.5 µM, library screen: screen1, EWS-FLI1 expression: low (doxycycline-induced shRNA knockdown).
Setting [10] is: 2.5 µM, library screen: screen2, EWS-FLI1 expression: low (doxycycline-induced shRNA knockdown).

`C[n+]1c2cc(N)ccc2cc2ccc(N)cc21`: the “cell viability (log2)” value under setting [1] was active: -0.404, the “cell viability (log2)” value under setting [2] was active: -4.23 and the “cell viability (log2)” value under setting [3] is active: -2.18.

Consider `O=C(N[C@H](CO)[C@H](O)c1ccc([N+](=O)[O-])cc1)C(Cl)Cl`, for which the “cell viability (log2)” value is inactive: 0.147 (0.025 µM, library screen: screen2, EWS-FLI1 expression: high (no doxycycline)); inactive: 0.0538 (0.025 µM, library screen: screen2, EWS-FLI1 expression: low (doxycycline-induced shRNA knockdown)); inactive: 0.125 (0.103 µM, library screen: screen3, EWS-FLI1 expression: high (no doxycycline)); inactive: 0.0882 (0.103 µM, library screen: screen3, EWS-FLI1 expression: low (doxycycline-induced shRNA knockdown)); inactive: 0.0946 under setting [4]; inactive: 0.141 under setting [5]. In addition, the “cell viability (log2)” value reads like this: under setting [6], inactive: 0.177; under setting [7], inactive: 0.067; (0.308 µM, library screen: screen3, EWS-FLI1 expression: high (no doxycycline)) inactive: 0.0951; (0.308 µM, library screen: screen3, EWS-FLI1 expression: low (doxycycline-induced shRNA knockdown)) inactive: 0.122; (0.926 µM, library screen: screen3, EWS-FLI1 expression: high (no doxycycline)) inactive: 0.0751; (0.926 µM, library screen: screen3, EWS-FLI1 expression: low (doxycycline-induced shRNA knockdown)) inactive: 0.12. Besides, the “cell viability (log2)” value reads like this: under setting [8], inactive: 0.152; under setting [9], inactive: 0.143; under setting [1], inactive: 0.0948; under setting [10], inactive: 0.142; (2.8 µM, library screen: screen3, EWS-FLI1 expression: high (no doxycycline)) inactive: 0.0465; (2.8 µM, library screen: screen3, EWS-FLI1 expression: low (doxycycline-induced shRNA knockdown)) inactive: 0.194. The “cell viability (log2)” value is, setting by setting: (8.3 µM, library screen: screen3, EWS-FLI1 expression: high (no doxycycline)) inactive: 0.139; (8.3 µM, library screen: screen3, EWS-FLI1 expression: low (doxycycline-induced shRNA knockdown)) inactive: 0.109; under setting [2], inactive: 0.0991; under setting [3], inactive: 0.027; (25 µM, library screen: screen3, EWS-FLI1 expression: high (no doxycycline)) inactive: 0.119; (25 µM, library screen: screen3, EWS-FLI1 expression: low (doxycycline-induced shRNA knockdown)) inactive: 0.0928.

For the molecule `O=C(O)CCNC(=O)c1ccccc1`, the “cell viability (log2)” value is, setting by setting: under setting [4], inactive: 0.12; under setting [5], inactive: -0.0698; under setting [8], inactive: 0.206; under setting [9], inactive: 0.0272.

In the case of `NC/C=C/C(=O)O`, the “cell viability (log2)” value reads like this: under setting [6], inactive: 0.0937; under setting [7], inactive: 0.0677; under setting [1], inactive: 0.0994; under setting [10], inactive: 0.0371.

With `CC(=O)O[C@H]1CC[C@@]2(C)[C@@H](CC[C@@H]3[C@@H]2CC[C@]2(C)[C@@H]4[C@H](C[C@@H]32)O[C@]2(CC[C@@H](C)CO2)[C@H]4C)C1`, the “cell viability (log2)” value is, setting by setting: under setting [4], inactive: 0.0876; under setting [5], inactive: 0.0708; under setting [8], inactive: 0.176; under setting [9], inactive: 0.151.

With `CCN(CC)CCOC(=O)c1cc(Cl)c(N)cc1OC`, the “cell viability (log2)” value was inactive: 0.171 under setting [6], inactive: -0.00228 under setting [7], inactive: 0.0663 under setting [1] and inactive: 0.0639 under setting [10].

In the case of `CC(=O)N[C@@H](Cc1c[nH]c2ccccc12)C(=O)OCc1cc(C(F)(F)F)cc(C(F)(F)F)c1`, the “cell viability (log2)” value is inactive: 0.0922 under setting [6], inactive: 0.0805 under setting [7], inactive: 0.152 under setting [1] and inactive: 0.0877 under setting [10].

As for `NCCCNCCCCNCCCN`, the “cell viability (log2)” value is inactive: 0.154 under setting [6], inactive: 0.0565 under setting [7], inactive: 0.0558 under setting [1] and inactive: 0.0601 under setting [10].

As to `CCN(CC)CCNC(=O)c1cc(Cl)c(N)cc1OC`, the “cell viability (log2)” value reads like this: under setting [4], inactive: 0.0661; under setting [5], inactive: -0.0016; under setting [6], inactive: 0.15; under setting [7], inactive: 0.17; under setting [8], inactive: 0.166; under setting [9], inactive: 0.15. Also, the “cell viability (log2)” value is inactive: 0.193 under setting [1] and inactive: 0.127 under setting [10].

As to `CCOc1ccc2ccccc2c1C(=O)N[C@@H]1C(=O)N2[C@@H]1SC(C)(C)[C@@H]2C(=O)O`, the “cell viability (log2)” value was inactive: 0.128 under setting [4], inactive: 0.0433 under setting [5], inactive: 0.166 under setting [8] and inactive: -0.038 under setting [9].

With `CN(C)C/C=C(/c1ccc(Br)cc1)c1cccnc1`, the “cell viability (log2)” value was inactive: 0.0905 under setting [6], inactive: 0.0837 under setting [7], inactive: 0.14 under setting [1] and inactive: 0.112 under setting [10].

As to `Cn1cnc2c1c(=O)[nH]c(=O)n2C`, the “cell viability (log2)” value under setting [4] was inactive: 0.0857; the “cell viability (log2)” value under setting [5] is inactive: 0.111; the “cell viability (log2)” value under setting [6] is inactive: 0.271; the “cell viability (log2)” value under setting [7] was inactive: 0.0982; the “cell viability (log2)” value under setting [8] is inactive: 0.156; the “cell viability (log2)” value under setting [9] is inactive: 0.18. Also, the “cell viability (log2)” value was inactive: 0.152 under setting [1] and inactive: 0.0905 under setting [10].

As to `N#C/C(=C\c1c[nH]c2ccccc12)C(=O)c1ccc(O)c(O)c1`, the “cell viability (log2)” value reads like this: under setting [6], inactive: 0.155; under setting [7], inactive: 0.0215; under setting [1], inactive: 0.202; under setting [10], inactive: 0.127.

Take `CCN1CCN(CC(O)COc2cc(C)c(Cl)c(C)c2)CC1` (centres undefined): the “cell viability (log2)” value runs as follows: under setting [4], inactive: 0.082; under setting [5], inactive: 0.0372; under setting [8], inactive: 0.096; under setting [9], inactive: 0.29.

Consider `CC1OC(OC2C(O)COC(OC3C(C)OC(OC4C(OC(=O)C56CCC(C)(C)CC5C5=CCC7C8(C)CCC(OC9OC(CO)C(O)C(O)C9O)C(C)(C)C8CCC7(C)C5(C)CC6O)OCC(O)C4O)C(O)C3O)C2O)C(O)C(O)C1O` (centres undefined), for which the “cell viability (log2)” value is inactive: 0.0486 under setting [4], inactive: 0.0258 under setting [5], inactive: 0.0372 under setting [8] and inactive: 0.223 under setting [9].

`CC1=NN(c2ccccc2)C(=O)C1`: the “cell viability (log2)” value reads like this: under setting [4], inactive: 0.122; under setting [5], inactive: 0.0544; under setting [8], inactive: 0.116; under setting [9], inactive: 0.125.

Turning to `NC(N)=NCCC[C@H](N)C(=O)O`, the “cell viability (log2)” value by setting is: under setting [6], inactive: 0.054; under setting [7], inactive: 0.0718; under setting [1], inactive: 0.081; under setting [10], inactive: 0.0583.

As for `COc1ccc2c(c1)OC1CC1(c1ccccc1OC)C2=O` (centres undefined), the “cell viability (log2)” value by setting is: under setting [4], inactive: 0.0685; under setting [5], inactive: 0.0535; under setting [8], inactive: 0.0294; under setting [9], inactive: 0.0412.

For the molecule `C[S+]([O-])c1ccc(-c2nc(-c3ccc(F)cc3)c(-c3ccncc3)[nH]2)cc1` (centres undefined), the “cell viability (log2)” value is 0.29 (0.025 µM, library screen: screen1, EWS-FLI1 expression: high (no doxycycline)); inactive: 0.136 (0.025 µM, library screen: screen1, EWS-FLI1 expression: low (doxycycline-induced shRNA knockdown)); inactive: 0.263 under setting [4]; inactive: 0.121 under setting [5]; active: -0.235 under setting [8]; inactive: 0.238 under setting [9]. Also, the “cell viability (log2)” value reads like this: (25 µM, library screen: screen1, EWS-FLI1 expression: high (no doxycycline)) active: -0.108; (25 µM, library screen: screen1, EWS-FLI1 expression: low (doxycycline-induced shRNA knockdown)) inactive: 0.274.

Turning to `CC1=CC(=O)C(C(C)C)=CC1=O`, the “cell viability (log2)” value reads like this: under setting [4], inactive: -0.0353; under setting [5], inactive: 0.0114; under setting [8], inactive: 0.0596; under setting [9], inactive: 0.0471.

Regarding `OCc1cccnc1`, the “cell viability (log2)” value by setting is: under setting [4], inactive: 0.0897; under setting [5], inactive: 0.0782; under setting [8], inactive: 0.155; under setting [9], inactive: -0.00172.

As for `O=C(O)Cc1c[nH]c2ccc(O)cc12`, the “cell viability (log2)” value is, setting by setting: under setting [6], inactive: 0.0568; under setting [7], inactive: 0.0713; under setting [1], inactive: 0.0127; under setting [10], inactive: 0.139.

The values are drawn from the supplement of paper PMC6089552.
